{"source": "PubChem BioAssay AID651820", "about": "(National Center for Advancing Translational Sciences (NCATS), 2012)", "note": "Hit rate of the full screen: of about 340,000 compounds, about 12,000 (3.5%) were called active. Inconclusive means that the source gave no clear call. Such entries were picked first, then a sample of the others. Calls follow the shape of the dose curve; as a rule, active = well fitted inhibition curve with a large enough effect; inconclusive = small, poorly fitted or top-dose-only effect, or another doubt; inactive = no such curve, though single readings can be large or run the other way. Potencies of inconclusive entries are left out as doubtful fits. % is scaled to controls: 0 for no effect and ±100 for the full control effect; potency is read from the fitted curve at half-maximal effect; tags tell the direction and shape of the fitted curve."}
{"assay": "qHTS Assay for Inhibitors of Hepatitis C Virus (HCV)", "conditions": "Huh7.5.1 HCVcc-Cre (HCVcc is cell-culture hepatitis C virus) infection, luciferase reporter, 44 h; activity change, negative = inhibition: at 41.8 µM (top of the series)", "outline": "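Infectious HCVcc-Cre (~0.5 moi) was added to cells just after compound, with cells seeded 4 h earlier at 1,000 per well. Luciferase activity after 44 h culture reported infection; substrate was incubated 15 min at room temperature before reading.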"}
{"smiles": "O=C(Nc1ccc(Br)cc1Cl)c1ccc2c(=O)n3c(nc2c1)CCC3", "Potency": "inconclusive [inhibitor, partial curve]"}
{"smiles": "CC(=O)Nc1ccc(S(=O)(=O)Nc2ccc3c(c2)OCCO3)cc1Cl", "Potency": "inconclusive [inhibitor, partial curve]"}
{"smiles": "Cc1n[nH]c(=O)c2c(NC(=O)COC(=O)c3cc(F)cc(F)c3)oc(C)c12", "Potency": "inconclusive [inhibitor, single point]"}
{"smiles": "COC1CCN(C(=O)CC2C(=O)NCCN2CC2CCCCC2)CC1", "note": "(configuration not stated)", "Potency": "inactive"}
{"smiles": "CCOC(=O)[C@@H]1[C@H]2COc3ccc(Br)cc3[C@H]2N2C(=O)N(c3ccc(Br)cc3)C(=O)[C@]12C", "Potency": "active: 31.6 µM"}
{"smiles": "COC(=O)C[C@H]1c2ccc(C(F)(F)F)cc2S(=O)(=O)N1Cc1ccccc1", "Potency": "inactive"}
{"smiles": "Cc1ccc(Oc2nc3ccccn3c(=O)c2/C=C(\\C#N)C(=O)Nc2c(C)n(C)n(-c3ccccc3)c2=O)cc1", "Potency": "inactive"}
{"smiles": "CC(C)Oc1ccc(CC2(CCc3ccncc3)C(=O)NC(=O)NC2=O)cc1", "Potency": "inconclusive [inhibitor, single point]"}
{"smiles": "COc1ccccc1Cn1c(=S)[nH]c2cc(C(=O)NCCCN3CCOCC3)ccc2c1=O", "Potency": "inconclusive [inhibitor, partial curve]"}
{"smiles": "CC(C(=O)NCc1ccco1)n1cc(C(=O)c2ccco2)c2ccccc21", "note": "(configuration not stated)", "Potency": "inconclusive [inhibitor, partial curve]"}
{"smiles": "Cc1ccc2[nH]c3c(c2c1)CN(C(=O)CN1CCCCC1)CC3", "Potency": "inconclusive [inhibitor, single point]"}
{"smiles": "CCNC(=S)N/N=C/c1cn(Cc2ccccc2F)c2ccccc12", "Potency": "inconclusive [inhibitor, partial curve]"}
{"smiles": "S=c1[nH]nc(-c2ccccc2)n1/N=C/c1ccc(-c2ccccc2Cl)o1", "Potency": "inactive"}
{"smiles": "COc1ccccc1C(=O)NCC1CCN(c2ccc(S(=O)(=O)N3CCOCC3)cc2)CC1", "Potency": "inconclusive [inhibitor, partial curve]"}
{"smiles": "COc1ccc(-c2csc(NC(=O)CCNC(=O)c3ccco3)n2)cc1OC", "Potency": "inconclusive [inhibitor, full curve]"}
{"smiles": "O=C1CN(C(=O)c2ccccc2F)c2ccccc2N1", "Potency": "inactive"}
{"smiles": "O=C(N/N=C/c1ccc(O)cc1O)C(=O)N/N=C/c1ccc(O)cc1O", "Potency": "inactive"}
{"smiles": "COc1cc(/C=C2\\SC(c3ccc(C)cc3)=NC2=O)ccc1O", "Potency": "inconclusive [inhibitor, single point]"}
{"smiles": "COc1ccc(SC[C@H](Cc2ccccc2)N2CC[C@@H](NC(=O)OCc3ccccc3)CCC2=O)cc1", "Potency": "inconclusive [inhibitor, single point]"}
{"smiles": "CCN1/C(=C/c2ccc3cccc(C)c3[n+]2CC)Sc2ccccc21", "Potency": "active: 6.31 µM"}
{"smiles": "OCCCc1nc2n(n1)C(c1cccs1)C=C(c1ccc(Br)cc1)N2", "note": "(configuration not stated)", "Potency": "inconclusive [inhibitor, single point]"}
{"smiles": "COc1ccc(C(O)(C(C)C)C(CN2CCOCC2)c2ccccc2)cc1", "note": "(configuration not stated)", "Potency": "inconclusive [inhibitor, single point]"}
{"smiles": "Fc1ccc(-c2nnc(NC3=NCCCCC3)o2)cc1", "Potency": "inactive"}
{"smiles": "CCCCCCNC(=O)c1cn(CC)c2cc(N3CCN(C)CC3)c(F)cc2c1=O", "Potency": "active: 10 µM"}
{"smiles": "CCCCCn1cnc2c(=S)nc(N)[nH]c21", "Potency": "inconclusive [inhibitor, partial curve]"}
{"smiles": "CC(C)CC1NC(=O)N(CC(=O)Nc2ccc(OC(F)F)cc2)C1=O", "note": "(configuration not stated)", "Potency": "inconclusive [inhibitor, partial curve, poor fit]"}
{"smiles": "CCOC(=O)c1cc(-c2ccccc2)sc1NC(=O)c1ccc(OC)c(OC)c1", "Potency": "inconclusive [inhibitor, full curve]"}
{"smiles": "CN1CCC(N(C)S(=O)(=O)c2ccc(NC(=O)COc3ccc(F)cc3Cl)cc2)CC1", "Potency": "inconclusive [inhibitor, single point]"}
{"smiles": "O=C(c1cc(-c2ccc(Br)cc2)on1)N1CCCCCC1", "Potency": "inactive"}
{"smiles": "COc1ccc(N2CCN(CCCNC(=O)C3CCCN(S(=O)(=O)c4c(C)n[nH]c4C)C3)CC2)cc1", "note": "(configuration not stated)", "Potency": "inactive"}
{"smiles": "O=C(Nc1ccc(CN2CCOCC2)cc1)c1ccc(-c2cc(Cl)ccc2Cl)o1", "Potency": "inconclusive [inhibitor, partial curve]"}
{"smiles": "O=C(Nc1nc2ccccc2s1)c1ccc2c(c1)OCO2", "Potency": "inconclusive [inhibitor, single point]"}
{"smiles": "Cc1ccc(CN2CC(C(=O)Nc3ccc(C)c(S(=O)(=O)N4CCCCC4)c3)CC2=O)cc1", "note": "(configuration not stated)", "Potency": "inconclusive [inhibitor, single point]"}
{"smiles": "O=C(Nc1ccc(OC(F)F)cc1)Nc1cccc(C(F)(F)F)c1", "Potency": "inconclusive [inhibitor, single point]"}
{"smiles": "Cn1c(-c2ccccc2)cc2onc(-c3ccccc3)c2c1=O", "Potency": "inconclusive [inhibitor, single point]"}
{"smiles": "CC(C)CN(Cc1cc(=O)oc2cc3c(cc12)CCCC3)CC(C)C", "Potency": "inactive"}
{"smiles": "COc1ccc(-c2cc(C(F)(F)F)n3nc(C(=O)NCc4ccco4)c(Cl)c3n2)cc1", "Potency": "inconclusive [inhibitor, partial curve]"}
{"smiles": "CCc1ccccc1NC(=O)C1CCN(C(=O)c2ccc([N+](=O)[O-])cc2)CC1", "Potency": "inactive"}
{"smiles": "COc1ccc(NC(=O)C(C)N(c2ccc(C)cc2)S(C)(=O)=O)c(OC)c1", "note": "(configuration not stated)", "Potency": "inconclusive [inhibitor, single point]"}
{"smiles": "O=C(CSc1n[nH]c(=O)[nH]c1=O)c1ccc(Cl)cc1Cl", "Potency": "inconclusive [inhibitor, partial curve, poor fit]"}
{"smiles": "CC(C)Cn1c(SCC(=O)c2c(N)n(C)c(=O)n(C)c2=O)nc2ccccc21", "Potency": "inconclusive [inhibitor, full curve]"}
{"smiles": "COc1ccccc1C(=O)NNC(=S)NC(=O)c1cc(OC)c(OC)c(OC)c1", "Potency": "inconclusive [inhibitor, partial curve]"}
{"smiles": "COC(=O)[C@H](CCSC)NC(=O)Cn1cc(C)c(=O)[nH]c1=O", "Potency": "active: 0.501 µM"}
{"smiles": "CN1CCN(c2ccc([N+](=O)[O-])c(Sc3ccccn3)c2)CC1", "Potency": "inconclusive [inhibitor, single point]"}
{"smiles": "O=S(=O)(/N=C(/Nc1ccccn1)c1ccc(Cl)cc1)c1ccc(Cl)cc1", "Potency": "inactive"}
{"smiles": "Cc1ccnc(NC(=O)CCCc2ccc(N(CCCl)CCCl)cc2)n1", "Potency": "inconclusive [inhibitor, full curve, poor fit]"}
{"smiles": "COc1ccc(NC(=O)CCC(=O)Nc2ccc3nc(N4CCOCC4)cc(C)c3c2)c(OC)c1", "Potency": "inconclusive [inhibitor, full curve]"}
{"smiles": "Nc1c(C(=O)Nc2ccccc2)sc2nc3c(c(-c4ccco4)c12)CCC3", "Potency": "active: 10 µM"}
{"smiles": "COCCCn1c(C)cc(C(=O)COC(=O)C23CC4CC(CC(O)(C4)C2)C3)c1C", "Potency": "inconclusive [inhibitor, single point]"}
{"smiles": "CN(C)CCn1c2c(c(SCC(=O)Nc3cccc4ccccc34)nc1=O)CCCC2", "Potency": "inconclusive [inhibitor, single point]"}
{"smiles": "CCc1cccc(NS(=O)(=O)c2ccc3c(c2)n(C)c(=O)n3C)c1", "Potency": "inconclusive [inhibitor, partial curve, poor fit]"}
{"smiles": "CCOC(=O)/C(=C/c1c(C)n(C)c2ccc([N+](=O)[O-])cc12)C(C)=O", "Potency": "inconclusive [inhibitor, partial curve, poor fit]"}
{"smiles": "CC(C)Oc1ccc(C(=O)N2CCCc3ccccc32)cc1", "Potency": "inactive"}
{"smiles": "Cc1ccc(NC(=O)c2ccc([N+](=O)[O-])cc2)cc1S(=O)(=O)N(C)C", "Potency": "inconclusive [inhibitor, partial curve]"}
{"smiles": "CCCC(c1nnnn1CS(=O)(=O)c1ccc(C)cc1)N1CCN(c2ccccc2)CC1", "note": "(configuration not stated)", "Potency": "inconclusive [inhibitor, single point]"}
{"smiles": "CC1CN(C(=O)COC(=O)c2ccccc2O)CC(C)O1", "note": "(configuration not stated)", "Potency": "inactive"}
{"smiles": "CC(=O)C1=C(C)NC(SCC(=O)c2ccc(F)cc2)=C(C#N)C1c1ccco1", "note": "(configuration not stated)", "Potency": "inconclusive [inhibitor, partial curve]"}
{"smiles": "CCCCc1ccc(NC(=O)C2CCCO2)cc1", "note": "(configuration not stated)", "Potency": "inconclusive [inhibitor, partial curve]"}
{"smiles": "CCOC(=O)c1sc(NC(=O)c2ccc(S(=O)(=O)N(C)C)cc2)cc1C", "Potency": "active: 11.2 µM"}
{"smiles": "Cc1ccc(NC(=O)Cc2n[nH]c(=O)c3ccccc23)cc1S(=O)(=O)N1CCCCCC1", "Potency": "active: 10 µM"}
{"smiles": "COc1cc2c(cc1NC(=O)COC(=O)[C@@H](NS(=O)(=O)c1ccccc1)C(C)C)oc1ccccc12", "Potency": "inconclusive [inhibitor, full curve]"}
{"smiles": "COc1ccc(CCNc2nc(-c3ccc(NC(C)=O)cc3)cs2)cc1OC", "Potency": "inconclusive [inhibitor, full curve]"}
{"smiles": "NC(=O)CC(NC(=O)c1ccccc1)c1ccc(NCc2ccc(F)cc2)c([N+](=O)[O-])c1", "note": "(configuration not stated)", "Potency": "inactive"}
{"smiles": "O=C(CSc1ccc2c(c1)OCCO2)Nc1ccc(Br)cn1", "Potency": "inconclusive [inhibitor, single point]"}
{"smiles": "C=CCOc1c(Cl)cc(CNc2ccc3[nH]c(=O)[nH]c3c2)cc1OC", "activity change, negative = inhibition": "inconclusive: -31.9% [inhibitor]"}
{"smiles": "Cc1ccc(C(=O)c2cc3c(cc2[N+](=O)[O-])OCCO3)cc1", "Potency": "inactive"}
{"smiles": "Cc1ccc(S(=O)(=O)N/N=C/c2c[nH]c3ccccc23)cc1", "Potency": "inconclusive [inhibitor, single point]"}
